# The other results are listed elsewhere or left out.
# Tests used:
# Test in all cases: glycan array binding signal (z-score within array); higher = stronger binding
# Conditions in all cases: glycan notation: IUPAC condensed, linker removed
# [1] = molecular target: GlcNAc(b1-2)Gal(b1-3)GalNAc
# Summary of the method: (§1)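 The Consortium for Functional Glycomics database supplied 3228 glycan arrays, of which those lacking an available protein sequence were dropped. The binding signal, a within-array Z-score, was averaged across arrays of the same protein sequence and across linkers. Negative scores can be read as non-binding.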
# [2] = molecular target: GlcNAc(b1-2)Man(a1-3)[GlcNAc(b1-2)Man(a1-6)]Man(b1-4)GlcNAc(b1-4)GlcNAc
# Summary of the method: as §1
# [3] = molecular target: GlcNAc(b1-2)Man(a1-3)[GlcNAc(b1-2)Man(a1-6)]Man(b1-4)GlcNAc(b1-4)[Fuc(a1-6)]GlcNAc
# Summary of the method: as §1
# [4] = molecular target: GlcNAc(b1-2)Man(a1-3)[GlcNAc(b1-4)][GlcNAc(b1-2)Man(a1-6)]Man(b1-4)GlcNAc(b1-4)GlcNAc
# Summary of the method: as §1
# [5] = molecular target: GlcNAc(b1-2)Man(a1-3)[GlcNAc(b1-4)][GlcNAc(b1-2)Man(a1-6)]Man(b1-4)GlcNAc(b1-4)[Fuc(a1-6)]GlcNAc
# Summary of the method: as §1
# [6] = molecular target: GlcNAc(b1-2)[GlcNAc(b1-4)]Man(a1-3)[GlcNAc(b1-2)Man(a1-6)]Man(b1-4)GlcNAc(b1-4)GlcNAc
# Summary of the method: as §1
# [7] = molecular target: GlcNAc(b1-2)[GlcNAc(b1-4)]Man(a1-3)[GlcNAc(b1-4)][GlcNAc(b1-2)Man(a1-6)]Man(b1-4)GlcNAc(b1-4)GlcNAc
# Summary of the method: as §1
# [8] = molecular target: GlcNAc(b1-2)[GlcNAc(b1-4)]Man(a1-3)[GlcNAc(b1-4)][GlcNAc(b1-2)[GlcNAc(b1-6)]Man(a1-6)]Man(b1-4)GlcNAc(b1-4)GlcNAc
# Summary of the method: as §1
# [9] = molecular target: GlcNAc(b1-2)[GlcNAc(b1-4)]Man(a1-3)[GlcNAc(b1-4)][GlcNAc(b1-2)[GlcNAc(b1-6)]Man(a1-6)]Man(b1-4)GlcNAc(b1-4)[Fuc(a1-6)]GlcNAc
# Summary of the method: as §1
# [10] = molecular target: GlcNAc(b1-2)[GlcNAc(b1-6)]Man(a1-6)[GlcNAc(b1-2)Man(a1-3)]Man(b1-4)GlcNAc(b1-4)GlcNAc
# Summary of the method: as §1
# [11] = molecular target: GlcNAc(b1-2)[GlcNAc(b1-6)]Man(a1-6)[GlcNAc(b1-2)Man(a1-3)]Man(b1-4)GlcNAc(b1-4)[Fuc(a1-6)]GlcNAc
# Summary of the method: as §1
# [12] = molecular target: GlcNAc(b1-2)[GlcNAc(b1-6)]Man(a1-6)[GlcNAc(b1-4)][GlcNAc(b1-2)Man(a1-3)]Man(b1-4)GlcNAc(b1-4)GlcNAc
# Summary of the method: as §1
# GlcNAc(b1-3)Fuc = molecular target: GlcNAc(b1-3)Fuc
# Summary of the method: as §1
# GlcNAc(b1-3)Gal = molecular target: GlcNAc(b1-3)Gal
# Summary of the method: as §1
# [13] = molecular target: GlcNAc(b1-3)Gal(b1-3)GalNAc
# Summary of the method: as §1
# GlcNAc(b1-3)Gal(b1-4)Glc = molecular target: GlcNAc(b1-3)Gal(b1-4)Glc
# Summary of the method: as §1
# [14] = molecular target: GlcNAc(b1-3)Gal(b1-4)GlcNAc
# Summary of the method: as §1
# [15] = molecular target: GlcNAc(b1-3)Gal(b1-4)GlcNAc(b1-2)Man(a1-3)[GlcNAc(b1-3)Gal(b1-4)GlcNAc(b1-2)Man(a1-6)]Man(b1-4)GlcNAc(b1-4)GlcNAc
# Summary of the method: as §1
# [16] = molecular target: GlcNAc(b1-3)Gal(b1-4)GlcNAc(b1-2)Man(a1-3)[GlcNAc(b1-3)Gal(b1-4)GlcNAc(b1-2)Man(a1-6)]Man(b1-4)GlcNAc(b1-4)[Fuc(a1-6)]GlcNAc
# Summary of the method: as §1
# [17] = molecular target: GlcNAc(b1-3)Gal(b1-4)GlcNAc(b1-2)[GlcNAc(b1-3)Gal(b1-4)GlcNAc(b1-6)]Man(a1-6)[GlcNAc(b1-3)Gal(b1-4)GlcNAc(b1-2)Man(a1-3)]Man(b1-4)GlcNAc(b1-4)GlcNAc
# Summary of the method: as §1
# [18] = molecular target: GlcNAc(b1-3)Gal(b1-4)GlcNAc(b1-3)Gal(b1-4)GlcNAc
# Summary of the method: as §1
# [19] = molecular target: GlcNAc(b1-3)Gal(b1-4)GlcNAc(b1-3)Gal(b1-4)GlcNAc(b1-2)Man(a1-3)[GlcNAc(b1-3)Gal(b1-4)GlcNAc(b1-3)Gal(b1-4)GlcNAc(b1-2)Man(a1-6)]Man(b1-4)GlcNAc(b1-4)GlcNAc
# Summary of the method: as §1
# [20] = molecular target: GlcNAc(b1-3)Gal(b1-4)GlcNAc(b1-3)Gal(b1-4)GlcNAc(b1-2)Man(a1-3)[GlcNAc(b1-3)Gal(b1-4)GlcNAc(b1-3)Gal(b1-4)GlcNAc(b1-2)Man(a1-6)]Man(b1-4)GlcNAc(b1-4)[Fuc(a1-6)]GlcNAc
# Summary of the method: as §1
# [21] = molecular target: GlcNAc(b1-3)Gal(b1-4)GlcNAc(b1-3)Gal(b1-4)GlcNAc(b1-2)[GlcNAc(b1-3)Gal(b1-4)GlcNAc(b1-3)Gal(b1-4)GlcNAc(b1-6)]Man(a1-6)[GlcNAc(b1-3)Gal(b1-4)GlcNAc(b1-3)Gal(b1-4)GlcNAc(b1-2)Man(a1-3)]Man(b1-4)GlcNAc(b1-4)[Fuc(a1-6)]GlcNAc
# Summary of the method: as §1
# [22] = molecular target: GlcNAc(b1-3)Gal(b1-4)GlcNAc(b1-3)Gal(b1-4)GlcNAc(b1-3)Gal(b1-4)GlcNAc(b1-2)Man(a1-3)[GlcNAc(b1-3)Gal(b1-4)GlcNAc(b1-3)Gal(b1-4)GlcNAc(b1-3)Gal(b1-4)GlcNAc(b1-2)Man(a1-6)]Man(b1-4)GlcNAc(b1-4)GlcNAc
# Summary of the method: as §1
# [23] = molecular target: GlcNAc(b1-3)Gal(b1-4)GlcNAc(b1-3)Gal(b1-4)GlcNAc(b1-3)Gal(b1-4)GlcNAc(b1-2)Man(a1-3)[GlcNAc(b1-3)Gal(b1-4)GlcNAc(b1-3)Gal(b1-4)GlcNAc(b1-3)Gal(b1-4)GlcNAc(b1-2)Man(a1-6)]Man(b1-4)GlcNAc(b1-4)[Fuc(a1-6)]GlcNAc
# Summary of the method: as §1
# [24] = molecular target: GlcNAc(b1-3)Gal(b1-4)GlcNAc(b1-3)Gal(b1-4)GlcNAc(b1-3)Gal(b1-4)GlcNAc(b1-2)[GlcNAc(b1-3)Gal(b1-4)GlcNAc(b1-3)Gal(b1-4)GlcNAc(b1-3)Gal(b1-4)GlcNAc(b1-6)]Man(a1-6)[GlcNAc(b1-3)Gal(b1-4)GlcNAc(b1-3)Gal(b1-4)GlcNAc(b1-3)Gal(b1-4)GlcNAc(b1-2)Man(a1-3)]Man(b1-4)GlcNAc(b1-4)[Fuc(a1-6)]GlcNAc
# Summary of the method: as §1
# [25] = molecular target: GlcNAc(b1-3)Gal(b1-4)GlcNAc(b1-3)Gal(b1-4)GlcNAc(b1-3)Gal(b1-4)GlcNAc(b1-3)Gal(b1-4)GlcNAc(b1-2)Man(a1-3)[GlcNAc(b1-3)Gal(b1-4)GlcNAc(b1-3)Gal(b1-4)GlcNAc(b1-3)Gal(b1-4)GlcNAc(b1-3)Gal(b1-4)GlcNAc(b1-2)Man(a1-6)]Man(b1-4)GlcNAc(b1-4)GlcNAc
# Summary of the method: as §1
# [26] = molecular target: GlcNAc(b1-3)Gal(b1-4)GlcNAc(b1-3)Gal(b1-4)GlcNAc(b1-3)Gal(b1-4)GlcNAc(b1-3)Gal(b1-4)GlcNAc(b1-2)Man(a1-3)[GlcNAc(b1-3)Gal(b1-4)GlcNAc(b1-3)Gal(b1-4)GlcNAc(b1-3)Gal(b1-4)GlcNAc(b1-3)Gal(b1-4)GlcNAc(b1-2)Man(a1-6)]Man(b1-4)GlcNAc(b1-4)[Fuc(a1-6)]GlcNAc
# Summary of the method: as §1
# [27] = molecular target: GlcNAc(b1-3)Gal(b1-4)GlcNAc(b1-3)Gal(b1-4)GlcNAc(b1-3)Gal(b1-4)GlcNAc(b1-3)Gal(b1-4)GlcNAc(b1-2)[GlcNAc(b1-3)Gal(b1-4)GlcNAc(b1-3)Gal(b1-4)GlcNAc(b1-3)Gal(b1-4)GlcNAc(b1-3)Gal(b1-4)GlcNAc(b1-6)]Man(a1-6)[GlcNAc(b1-3)Gal(b1-4)GlcNAc(b1-3)Gal(b1-4)GlcNAc(b1-3)Gal(b1-4)GlcNAc(b1-3)Gal(b1-4)GlcNAc(b1-2)Man(a1-3)]Man(b1-4)GlcNAc(b1-4)[Fuc(a1-6)]GlcNAc
# Summary of the method: as §1
binder,measurement,setting,value
Epa10 (protein) MNEKIFRYLTLLFLFELARSLPVEDKLNIKKVFEKRAVDFTPFAHYPRPEGCSSPPNSVSVGLHMNLYNYPYLYVKPSTKGMFTNDTNSDADGETDGDSAGGIEGRAGQCWNPEYQDPNFPRFGYKQYGEFGASDNVNGDISWDHNEFTEGCKPVLAALPPGYNYPDEITFSNFTMVLSGYFKPKTSGVYKFELKADDFILFNFGAKNAFECCNREESIDNFGPYVAYAMWPNQADQELEVYLFEDSYYPLRLFYNNRDYHSKFKIGFYPPGQTTITFDFDGYLFMLDDTGNECRDSIRYRTVCDDKVVDDTTYSTRYSTSMVPGGGSDVITIYYIRMKCEEEDCLGQWDPINNVCYSPDDCADDGGYWNGQMCDQSCKLEGGIVNPDTGDCDKSCIESGGFLDENGNCDTTCRDDGGMLVEGQCDYQCKEAGGILVGDHCDTTCVDSGGKLNEDGTCDHSCRDQGGQLDENGECDTSCKDSGGMLIEGECDTSCKDEGGQLDDNNECINHCKDQGGIIDENGNCDTSCKDSGGKLDESGACDTSCRDDGGIIDENGNCNTTCRDDGGIIVGDHCDTSCRDAGGILIEDHCDTTCRDSGGKLNEDGTCDHSCRDQGGQLDENGKCDYSCKNGGGKLDEDGNCDMSCKENGGKLDENGDCDLSCKEDGGKLDGNGDCDYSCKEEGGVIDESGNCNTTCKDSGGQIIDGECNYGCIEVGGVVIDGECDTSCIDSGGILDGDGNCDRSCIESGGVLEDGACNTTCRDSGGQLNVDGTCDTSCRDDGGMLVEGQCDYQCKEAGGILEDGECVFPPTSSSTSETSSTTDQSSLQSDDSSMESSSTPMDSSTIESSSSEIITSESESESVPIASSSSEVMTSESESESIPILTSSSEIPIASSSSEIPVASSSSEIIIPESESESVPVASSSSEIPIASSSSEIPVASSSSEIPVASSSSEIIIPESESESIPIESTSSEAVSSRSESDSSYPTPTPTTTTITTWPNPIQPTTSNSSPIVSSSTETPGIAESSSRISDLESSRRTSILGDDRTRTRTTITSTITEDGQIITITTTVTGFVPEPTGETEGNGSDDENPENPIENNTDENEFLDPEFTDDIPDDPAGPEDNGNGPVNPEQGNDNDPVNLEDSGNNGAVNPEQAPVNDEDNGGNDPVNPEQDNNNGPANPGQDSTNGSGNSDQIDNNPPTPEENAGDGNSNGNDPADPSRRTSILGDERTRASPGGTSQPTGANGNVNGNSPGANVNGGGTGNSNNNNNNNNNNNNGNAPNGGDGSNGDANQGPSRRTSLLGDERTRAGQAAPTGGSSPDNGIAGDTSNNGGAIVSQQVDDGGAGSPRRTSILGDVRSRTTLNGEVLNFEGSGVRRAVAGNLALPLMMVGLVFNL,glycan array binding signal (z-score),[1],-0.256
same,glycan array binding signal (z-score),[2],-0.259
same,glycan array binding signal (z-score),[3],-0.266
same,glycan array binding signal (z-score),[4],-0.198
same,glycan array binding signal (z-score),[5],-0.218
same,glycan array binding signal (z-score),[6],-0.276
same,glycan array binding signal (z-score),[7],-0.188
same,glycan array binding signal (z-score),[8],-0.237
same,glycan array binding signal (z-score),[9],-0.299
same,glycan array binding signal (z-score),[10],-0.239
same,glycan array binding signal (z-score),[11],-0.215
same,glycan array binding signal (z-score),[12],-0.259
same,glycan array binding signal (z-score),GlcNAc(b1-3)Fuc,-0.26
same,glycan array binding signal (z-score),GlcNAc(b1-3)Gal,-0.237
same,glycan array binding signal (z-score),[13],-0.197
same,glycan array binding signal (z-score),GlcNAc(b1-3)Gal(b1-4)Glc,-0.254
same,glycan array binding signal (z-score),[14],-0.268
same,glycan array binding signal (z-score),[15],-0.196
same,glycan array binding signal (z-score),[16],-0.206
same,glycan array binding signal (z-score),[17],-0.125
same,glycan array binding signal (z-score),[18],-0.213
same,glycan array binding signal (z-score),[19],-0.076
same,glycan array binding signal (z-score),[20],-0.129
same,glycan array binding signal (z-score),[21],-0.132
same,glycan array binding signal (z-score),[22],-0.283
same,glycan array binding signal (z-score),[23],0.011
same,glycan array binding signal (z-score),[24],-0.103
same,glycan array binding signal (z-score),[25],-0.22
same,glycan array binding signal (z-score),[26],-0.145
same,glycan array binding signal (z-score),[27],-0.075
